# Laboratory results from the supplement of paper PMC8728848.
# The other results are listed elsewhere or left out.
# Tests used:
# Test in all cases: glycan array binding signal (z-score within array); higher = stronger binding
# Conditions in all cases: glycan notation: IUPAC condensed, linker removed
# [1] = biological target: Fuc(a1-2)Gal
# How it was run: (§1)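 From the Consortium for Functional Glycomics database, 3228 arrays were curated, keeping only those whose protein sequence was available. Binding is given as a within-array Z-score averaged across arrays sharing a protein sequence and across linkers. Negative Z-scores can be read as non-binding.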
# [2] = biological target: Fuc(a1-2)Gal(b1-3)GalNAc
# How it was run: as §1
# [3] = biological target: Fuc(a1-2)Gal(b1-3)GalNAc(a1-3)[Fuc(a1-2)]Gal(b1-4)Glc
# How it was run: as §1
# [4] = biological target: Fuc(a1-2)Gal(b1-3)GalNAc(a1-3)[Fuc(a1-2)]Gal(b1-4)GlcNAc
# How it was run: as §1
# [5] = biological target: Fuc(a1-2)Gal(b1-3)GalNAc(b1-3)Gal
# How it was run: as §1
# [6] = biological target: Fuc(a1-2)Gal(b1-3)GalNAc(b1-3)Gal(a1-4)Gal(b1-4)Glc
# How it was run: as §1
# [7] = biological target: Fuc(a1-2)Gal(b1-3)GalNAc(b1-4)[Neu5Ac(a2-3)]Gal(b1-4)Glc
# How it was run: as §1
# [8] = biological target: Fuc(a1-2)Gal(b1-3)GlcNAc
# How it was run: as §1
# [9] = biological target: Fuc(a1-2)Gal(b1-3)GlcNAc(b1-2)Man(a1-3)[Fuc(a1-2)Gal(b1-3)GlcNAc(b1-2)Man(a1-6)]Man(b1-4)GlcNAc(b1-4)GlcNAc
# How it was run: as §1
# [10] = biological target: Fuc(a1-2)Gal(b1-3)GlcNAc(b1-2)Man(a1-3)[Fuc(a1-2)Gal(b1-3)GlcNAc(b1-2)Man(a1-6)]Man(b1-4)GlcNAc(b1-4)[Fuc(a1-6)]GlcNAc
# How it was run: as §1
# [11] = biological target: Fuc(a1-2)Gal(b1-3)GlcNAc(b1-3)Gal(b1-4)Glc
# How it was run: as §1
# [12] = biological target: Fuc(a1-2)Gal(b1-3)GlcNAc(b1-3)GalNAc
# How it was run: as §1
# [13] = biological target: Fuc(a1-2)Gal(b1-3)GlcNAc(b1-3)[Fuc(a1-3)[Gal(b1-4)]GlcNAc(b1-6)]Gal(b1-4)Glc
# How it was run: as §1
# [14] = biological target: Fuc(a1-2)Gal(b1-3)GlcNAc(b1-3)[Gal(b1-4)GlcNAc(b1-6)]Gal(b1-4)Glc
# How it was run: as §1
# [15] = biological target: Fuc(a1-2)Gal(b1-3)[Fuc(a1-4)]GlcNAc
# How it was run: as §1
# [16] = biological target: Fuc(a1-2)Gal(b1-3)[Fuc(a1-4)]GlcNAc(b1-2)Man(a1-3)[Fuc(a1-2)Gal(b1-3)[Fuc(a1-4)]GlcNAc(b1-2)Man(a1-6)]Man(b1-4)GlcNAc(b1-4)GlcNAc
# How it was run: as §1
# [17] = biological target: Fuc(a1-2)Gal(b1-3)[Fuc(a1-4)]GlcNAc(b1-3)[Fuc(a1-3)[Gal(b1-4)]GlcNAc(b1-6)]Gal(b1-4)Glc
# How it was run: as §1
# [18] = biological target: Fuc(a1-2)Gal(b1-3)[Fuc(a1-4)]GlcNAc(b1-3)[Gal(b1-4)GlcNAc(b1-6)]Gal(b1-4)Glc
# How it was run: as §1
# [19] = biological target: Fuc(a1-2)Gal(b1-4)Glc
# How it was run: as §1
# [20] = biological target: Fuc(a1-2)Gal(b1-4)Glc6S
# How it was run: as §1
# [21] = biological target: Fuc(a1-2)Gal(b1-4)GlcNAc
# How it was run: as §1
# [22] = biological target: Fuc(a1-2)Gal(b1-4)GlcNAc(b1-2)Man(a1-3)[Fuc(a1-2)Gal(b1-4)GlcNAc(b1-2)Man(a1-6)]Man(b1-4)GlcNAc(b1-4)GlcNAc
# How it was run: as §1
# [23] = biological target: Fuc(a1-2)Gal(b1-4)GlcNAc(b1-2)Man(a1-3)[Fuc(a1-2)Gal(b1-4)GlcNAc(b1-2)Man(a1-6)]Man(b1-4)GlcNAc(b1-4)[Fuc(a1-6)]GlcNAc
# How it was run: as §1
# [24] = biological target: Fuc(a1-2)Gal(b1-4)GlcNAc(b1-2)[Fuc(a1-2)Gal(b1-4)GlcNAc(b1-4)]Man(a1-3)[Fuc(a1-2)Gal(b1-4)GlcNAc(b1-2)Man(a1-6)]Man(b1-4)GlcNAc(b1-4)GlcNAc
# How it was run: as §1
# [25] = biological target: Fuc(a1-2)Gal(b1-4)GlcNAc(b1-3)Gal(b1-4)GlcNAc
# How it was run: as §1
# [26] = biological target: Fuc(a1-2)Gal(b1-4)GlcNAc(b1-3)Gal(b1-4)GlcNAc(b1-3)Gal(b1-4)GlcNAc
# How it was run: as §1
# [27] = biological target: Fuc(a1-2)Gal(b1-4)GlcNAc(b1-3)GalNAc
# How it was run: as §1
# [28] = biological target: Fuc(a1-2)Gal(b1-4)GlcNAc6S
# How it was run: as §1
# [29] = biological target: Fuc(a1-2)Gal(b1-4)[Fuc(a1-3)]GlcNAc
# How it was run: as §1
# [30] = biological target: Fuc(a1-2)Gal(b1-4)[Fuc(a1-3)]GlcNAc(b1-2)Man(a1-3)[Fuc(a1-2)Gal(b1-4)[Fuc(a1-3)]GlcNAc(b1-2)Man(a1-6)]Man(b1-4)GlcNAc(b1-4)GlcNAc
# How it was run: as §1
binder,measurement,setting,value
Gal 3 (Canis lupus) (protein) MADSFSLNDALSGSGNPNPQGWPGPWGNQPAGAGGYPGASYPGAYPGQAPPGGYPGQAPPGGYPGQAPPGGYPGQAPPGGYPGQAPPGGYPGQAPPGTYPGPTAPAYPGPTAPGTQPGQPSGPGAYPPPGQPSAPGAYPAAGPFGIPAGPLTVPYDLPLPGGVKPRMLITILGTVRPSANRLALDFKRGNDVAFHFNPRFNEDNKRVIVCNTKLDNIWGKEERQAAFPFESGKPFKIQVLVESDHFKVAVNDAHLLQYNHRMKNLPEISKLGISGDIDLTSASYAMI,glycan array binding signal (z-score),[1],-0.258
same,glycan array binding signal (z-score),[2],-0.258
same,glycan array binding signal (z-score),[3],-0.248
same,glycan array binding signal (z-score),[4],-0.113
same,glycan array binding signal (z-score),[5],-0.269
same,glycan array binding signal (z-score),[6],-0.264
same,glycan array binding signal (z-score),[7],-0.26
same,glycan array binding signal (z-score),[8],-0.171
same,glycan array binding signal (z-score),[9],-0.178
same,glycan array binding signal (z-score),[10],-0.159
same,glycan array binding signal (z-score),[11],0.067
same,glycan array binding signal (z-score),[12],-0.159
same,glycan array binding signal (z-score),[13],-0.134
same,glycan array binding signal (z-score),[14],-0.147
same,glycan array binding signal (z-score),[15],-0.274
same,glycan array binding signal (z-score),[16],-0.219
same,glycan array binding signal (z-score),[17],-0.25
same,glycan array binding signal (z-score),[18],-0.193
same,glycan array binding signal (z-score),[19],-0.244
same,glycan array binding signal (z-score),[20],-0.225
same,glycan array binding signal (z-score),[21],-0.189
same,glycan array binding signal (z-score),[22],0.463
same,glycan array binding signal (z-score),[23],-0.156
same,glycan array binding signal (z-score),[24],-0.147
same,glycan array binding signal (z-score),[25],1.56
same,glycan array binding signal (z-score),[26],2.25
same,glycan array binding signal (z-score),[27],-0.198
same,glycan array binding signal (z-score),[28],0.095
same,glycan array binding signal (z-score),[29],-0.259
same,glycan array binding signal (z-score),[30],-0.201
